From article PMC4336329 (PLoS ONE, 2015)
About 2,200 (0.71%) of roughly 310,000 compounds showed an effect of 50% or more. Effects have a minus sign here. The list shows a part of the results.

Target: human ether-à-go-go-related gene (hERG) potassium channel (human, UniProt Q12809)
Test: primary screen, population patch clamp on CHO cells stably expressing hERG

Sequence of human ether-à-go-go-related gene (hERG) potassium channel (Q12809 whole entry, looked up): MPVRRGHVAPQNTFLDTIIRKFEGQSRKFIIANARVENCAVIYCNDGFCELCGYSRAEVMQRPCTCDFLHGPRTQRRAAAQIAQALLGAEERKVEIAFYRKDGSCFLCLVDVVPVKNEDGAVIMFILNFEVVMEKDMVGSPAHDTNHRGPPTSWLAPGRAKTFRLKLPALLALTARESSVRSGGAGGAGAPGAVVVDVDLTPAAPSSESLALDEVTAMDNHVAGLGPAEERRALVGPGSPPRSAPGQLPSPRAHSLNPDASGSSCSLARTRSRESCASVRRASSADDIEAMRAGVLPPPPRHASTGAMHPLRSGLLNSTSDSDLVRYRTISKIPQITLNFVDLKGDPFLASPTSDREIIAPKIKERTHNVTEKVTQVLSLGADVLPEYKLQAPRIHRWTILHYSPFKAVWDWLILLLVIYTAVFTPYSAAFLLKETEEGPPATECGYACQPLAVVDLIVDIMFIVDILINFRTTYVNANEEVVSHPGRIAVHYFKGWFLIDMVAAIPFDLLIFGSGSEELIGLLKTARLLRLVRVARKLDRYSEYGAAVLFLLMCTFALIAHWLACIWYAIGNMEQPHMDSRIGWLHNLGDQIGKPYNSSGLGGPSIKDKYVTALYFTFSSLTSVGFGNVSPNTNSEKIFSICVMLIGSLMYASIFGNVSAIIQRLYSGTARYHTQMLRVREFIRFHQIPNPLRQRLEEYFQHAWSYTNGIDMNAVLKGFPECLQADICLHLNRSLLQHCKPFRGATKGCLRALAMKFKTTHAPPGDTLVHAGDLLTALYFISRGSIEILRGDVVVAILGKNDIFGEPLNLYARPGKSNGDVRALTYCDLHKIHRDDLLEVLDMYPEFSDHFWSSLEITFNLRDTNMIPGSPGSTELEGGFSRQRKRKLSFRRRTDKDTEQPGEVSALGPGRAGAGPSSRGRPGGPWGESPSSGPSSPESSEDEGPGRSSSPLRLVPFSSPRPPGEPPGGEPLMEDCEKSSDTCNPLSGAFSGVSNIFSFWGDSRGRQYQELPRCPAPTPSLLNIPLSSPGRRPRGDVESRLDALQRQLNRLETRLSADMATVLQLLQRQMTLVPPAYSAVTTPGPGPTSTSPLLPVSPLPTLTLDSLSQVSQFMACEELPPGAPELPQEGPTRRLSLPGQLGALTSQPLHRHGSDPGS

Compound	hERG current change (%, negative = inhibition) at 1uM
COc1ccc(CC(=O)Nc2cccc3ccccc23)cc1OC	7.9%
NS(=O)(=O)c1cc2c(cc1Cl)NCNS2(=O)=O	2.46%
COc1cc2c(cc1OC)C(c1cccs1)N(C(=O)C(C)C)CC2 (stereo not shown)	-2.58%
CC1(C)CC(=O)C([N+](=O)[O-])=C(NCCCO)C1	12.8%
Cc1cc(C)n2ncc(C(=O)Nc3ccc(Cl)c(Cl)c3)c2n1	2.71%
CN1CCN(c2ccccc2NC(=O)c2ccc([N+](=O)[O-])o2)CC1	-62.4%
COC(=O)Nc1c(C)n(C)n(-c2ccccc2)c1=O	3.74%
c1ccc2c(-c3nc(-c4ccncc4)no3)cccc2c1	5.23%
O=C(c1ccc(CS(=O)c2cccc(Cl)c2)o1)N1CCCCCC1 (stereo not shown)	16.3%
Cn1cc(CN2CCC(n3nccc3NC(=O)c3ccccc3Cl)CC2)cn1	-4.32%
Cc1ccc(OCc2nnc(-c3ccc(Cl)cc3)o2)cc1	12.1%
COc1ccc(CCNC(=O)CCSc2nc(-c3ccco3)cc(C(F)(F)F)n2)cc1OC	7.25%
CC1Cc2cc(/C(O)=C3/C(=O)C(=O)N(Cc4cccnc4)C3c3cccc(O)c3)ccc2O1 (stereo not shown)	13.2%
Cc1ccc2cc(C)c(N3CCN(c4ccc(F)cc4)CC3)nc2c1	10.9%
COc1ccc(/C=N/NC(=O)COc2cccc3cccnc23)cc1OC	10.3%
COc1ccc(S(=O)(=O)Nc2ccccc2-c2nnn(CC(=O)Nc3ccccc3OC)n2)cc1	6.52%
CCc1nnc(NC(=O)CSc2nnc(-c3ccccc3OC)n2-c2ccccc2)s1	5.93%
CC(CCc1ccccc1)NC(=O)COC(=O)c1cccn1C (stereo not shown)	9.38%
Cc1ccccc1C(=O)OC(C)CN1CCOCC1.Cl (stereo not shown)	-1.51%
CC(C)c1ccc(S(=O)(=O)N2CCN(C(=O)CN3C(=O)NC(C)(c4ccccc4)C3=O)CC2)cc1 (stereo not shown)	-1.1%
N#Cc1cc([N+](=O)[O-])ccc1N1CCN(c2ccccc2O)CC1	0.872%
CCCC(=O)Nc1ccc(NC(=O)c2cccs2)cn1	10.5%

Compound	hERG current change (%, negative = inhibition) at 1uM
O=C(N/N=C/c1ccccn1)NC12CC3CC(CC(C3)C1)C2	11.2%
CCOC(=O)c1ccccc1NC(=S)N1CCCCC1	-2.53%
O=C(CCNS(=O)(=O)c1ccc(Br)s1)NCc1ccc(F)cc1	8.05%
Cc1ccccc1-c1nc(CS(=O)CC(=O)NC(C)CCc2ccccc2)c(C)o1 (stereo not shown)	5.81%
CCCCn1c(N)c(N(CCOC)C(=O)C2CC(=O)N(c3ccc(CC)cc3)C2)c(=O)[nH]c1=O (stereo not shown)	5.18%
O=C1NC(=Nc2ccccc2)S/C1=C\c1ccccc1	8.15%
CCn1cc(C(=O)N[C@@H](C)C(=O)NCCCn2ccnc2)c(=O)c2cc3c(cc21)OCO3	11.2%
COc1ccc(-c2noc(-c3cc4ccccc4oc3=O)n2)cc1	11.1%
Cc1cc(C)n2nc(CNS(=O)(=O)c3ccc(CC(C)C)cc3)nc2n1	1.86%
COc1ccc(-c2cc(C(F)(F)F)n3nc(C(=O)N4CCCCC4)cc3n2)cc1OC	8.87%
Cc1nnc(N2C(=O)C(O)=C(C(=O)c3ccco3)C2c2cccc([N+](=O)[O-])c2)s1 (stereo not shown)	7.51%
COc1ccc(-c2cc(C(=O)Nc3cnn(Cc4ccccc4C)c3)no2)cc1OC	-1.78%
Cc1ccccc1OCCC(=O)OCC(=O)Nc1cc(S(=O)(=O)N2CCOCC2)ccc1Cl	-1.26%
N=c1oc2ccc(Cl)cc2cc1C(=O)NC1CCCCCC1	8.26%
COc1ccc(NC(=O)CC(c2ccco2)C(C)C)cc1 (stereo not shown)	21.5%
O=C(NCCO)Nc1ccc2nsnc2c1	-7.54%
CCCC(=O)NC(c1ccccc1Cl)c1ccc2cccnc2c1O (stereo not shown)	12%
O=[N+]([O-])c1cc(S(=O)(=O)c2ccc(N3CCCCC3)c([N+](=O)[O-])c2)ccc1N1CCCCC1	9.27%
COc1ccc(C2=NOC(COc3ccc([N+](=O)[O-])cc3)C2)cc1 (stereo not shown)	7.89%
CC(=O)c1ccc(OCCOc2ccc([N+](=O)[O-])cc2)cc1	-1.36%
O=C(Nc1ccc2c(c1)CCC2)Nc1ccccc1F	-37.7%
O=C(Nc1ccc(NC(=O)c2ccc(S(=O)(=O)c3ccccc3)cc2)cc1)c1ccccc1	20%

Compound	hERG current change (%, negative = inhibition) at 1uM
Nc1nc(SCC(=O)NCCO)nc2sc3c(c12)CCCC3	2.69%
CCN(CC)S(=O)(=O)c1ccc2c(c1)nc(SCC(N)=O)n2-c1ccc(OC)cc1	-16.9%
CCNC(=S)NNC(=O)c1cccn(Cc2ccc(Cl)cc2Cl)c1=O	2.45%
CCC(=O)NC(Nc1nc(C)cs1)(C(=O)OC)C(F)(F)F (stereo not shown)	0.8%
Cc1ccc(Cn2c(=N)c(C(=O)NC3CCCCC3)cc3c(=O)n4ccccc4nc32)cc1	-5.62%
COCc1cc(=O)n2[nH]c(-c3ccccc3)cc2n1	-3.4%
Cc1nn(-c2ccccc2)c2sc(C(=O)OCc3nnc(-c4ccccc4)o3)cc12	4.81%
Cc1nnc2ccc(-c3ccc(NS(=O)(=O)c4ccc(F)cc4F)cc3)nn12	5.57%
O=C(O)CCC(NC(=O)c1ccc(Cl)cc1)C(=O)O (stereo not shown)	13.2%
O=C(NCC1CCCO1)c1cc(S(=O)(=O)N2CCOCC2)ccc1Cl (stereo not shown)	17.6%
O=C(c1ccco1)n1nc(-c2ccccc2)nc1NCc1ccco1	7.97%
CC(=O)N1CCN(C2=NC(=O)/C(=C\c3cccs3)S2)CC1	1.72%
COc1ccc(NC(=O)CSc2nc3ccccc3c(=O)n2CCCC(=O)NCC2CCCO2)c(OC)c1 (stereo not shown)	14.1%
CCCn1c(=O)c(C(=O)NNS(=O)(=O)c2ccc(Cl)cc2)c(O)c2ccccc21	-7.17%
CNC(=O)COc1ccc(S(=O)(=O)Nc2ccccc2)cc1	11.8%
O=C(OCC(=O)N1CCCC1)c1c(Cl)ccc(Cl)c1Cl	9.45%
O=C(O)c1cc(-c2ccc(N3CCOCC3)cc2)nn1-c1ccc(F)cc1F	12.7%
O=C(Nc1ccnn1C1CCN(CC(O)CO)CC1)C1CCCC1 (stereo not shown)	12.5%
CC(NC(=O)c1ccccc1NC(=O)c1ccccc1)C(=O)N1CCOCC1 (stereo not shown)	1.87%
Cl.Cn1c2c(c3ccccc31)CCN1CCC[C@]21c1ccccc1	12.1%
Cc1cc(C)n(C(=O)CNC(=O)c2cccc(Br)c2)n1	2.07%
CN(C)c1ccc(NC(=O)c2ccc3nc[nH]c3c2)cc1	14.3%

Compound	hERG current change (%, negative = inhibition) at 1uM
CC1CCCCN1CC(=O)Nc1ccc(Oc2ccccc2)cc1.Cl (stereo not shown)	-2.88%
COc1ccc(N(C)C(=O)c2cn(C)c(=O)c3cc(OC)c(OC)cc23)cc1	14.6%
CCOc1ccc(NC(=O)CSc2nnc(Cn3cnc([N+](=O)[O-])n3)n2C)cc1	13.8%
C=CCC1NS(=O)(=O)O[C@H](CCCC)[C@@H]1O (stereo partly shown)	8.57%
O=C(N/N=C/c1cc(O)ccc1Br)c1cccnc1	16.6%
O=C(CCCN1C(=O)/C(=C\c2cccs2)SC1=S)Nc1cccnc1	15.2%
O=C(Cc1ccc(F)cc1)NCCS(=O)(=O)N1CCN(c2ccccc2)CC1	17.2%
O=C(COC(=O)CCC(NC(=O)OCc1ccccc1)C(=O)OCC(=O)Nc1ccccc1)Nc1ccccc1 (stereo not shown)	-1.5%
CCc1ccnc(NC(=O)NS(=O)(=O)c2ccc(C)cc2)c1	17.5%
BrC(=C\c1ccccc1)/C=N/Nc1nc2ccccc2[nH]1	6.83%
O=C(CN1CCN(Cc2ccc3c(c2)OCO3)CC1)Nc1ccc(N2CCOCC2)cc1	8.8%
CCCCCC(=O)NNC1=NCC(Cc2cccc(Cl)c2)S1 (stereo not shown)	9.14%
CC(=O)Nc1ccc(-c2cn3c(n2)SCC3)cc1	9.67%
COc1cc(/C=N/NC(=O)c2cccnc2)cc(Br)c1O	8.09%
CCC(C)CCN1CCN=C1N(C)C (stereo not shown)	17.6%
CC(=O)N1CCOc2cc(S(=O)(=O)NCc3ccc(F)cc3)c(C)cc21	-6.22%
COc1ccc(NC2c3ccccc3C(=O)N2Cc2ccc3c(c2)OCO3)cc1 (stereo not shown)	6.29%
O=c1c2c(nc3nc(NCc4cccc5ccccc45)[nH]n13)CCC2	16.1%
CCN(CC(=O)Nc1c(F)cccc1F)C(=O)CSc1nc(C)cc(C)n1	9.69%
CC(=O)C1=C(C)NC(=S)NC1c1cccc([N+](=O)[O-])c1 (stereo not shown)	9.64%
O=C(Cn1ncc2ccccc21)N1CCN(c2cccc(C(F)(F)F)c2)CC1	5.47%
Cc1ccc2occ(CN3CCN(Cc4ccccc4)CC3)c(=O)c2c1	-9.34%
